# Data from ChEMBL document CHEMBL1157539, “Thousands of chemical starting points for antimalarial lead identification” (Nature, 2010).
# In all, about 13,000 compounds were measured (“IFI”: median about 4, highest 2% from about 17 on). Some of the results follow.
# Experiment: GSK_TCMDC: Inhibition Frequency Index (IFI). The number of non-kinase HTS assays where a compound showed > 50 % inhibition, expressed as a percentage of the number of such assays in which the compound was tested (-0 is zero)
# Format: functional
row,Compound,IFI
1,O=C(Nc1ccc2c(c1)CCC2)c1nc(N2CCN(c3ccncc3)CC2)ccc1Cl,13.8%
2,Cc1ccc(N2C(N)=NC(N)=NC2c2ccccc2)cc1 (stereo not given),0%
3,Cc1ccc(C2CCN(CCCCNC(=O)c3ccc(NC(=O)c4ccc(Cl)cc4)cc3)CC2)c(C)c1,3.01%
4,COc1ccc2ncc(Cl)c([C@H](O)CN3CCC(NCc4cc5c(cn4)OCCO5)CC3)c2c1,1.77%
5,COc1cc2c(=O)c(Cc3ccc(Cl)cc3)c(C)[nH]c2cc1F,1.52%
6,Cc1ccc(Nc2nc3cc(Nc4ccnc(Nc5cccc(CS(C)(=O)=O)c5)n4)ccc3o2)cc1,10.9%
7,CC(C)NCc1ccc(-c2ccc(NC(=O)c3cccc(C#N)c3)cc2)cc1,8.16%
8,Cc1ccc(Cn2ncc(NC3CCNCC3)c(Cl)c2=O)cc1NC(=O)Nc1ccc(-c2ccccc2)cc1,6.16%
9,C[C@@H](CC1CCCCC1)OC(=O)N(C)[C@@H]1CCN(C#N)C1,2.94%
10,Cc1cc(N[C@@H](Cc2ccccc2)C(=O)NCCc2ccccc2)nc(NCCc2cccs2)n1,14.6%
11,Oc1ccc2[nH]cc(C3CCN(CCCCCCCCCN4CCC(c5c[nH]c6ccc(O)cc56)CC4)CC3)c2c1,7.63%
12,Cc1[nH]c(C)c(-c2cccc(-c3ccc(OC(F)(F)F)cc3)c2)c(=O)c1Br,11.4%
13,FC(F)(F)c1ccc2[nH]c(-c3ccc(-c4cccc(CN5CCN(c6ccncc6)CC5)c4)cc3)nc2c1,13.1%
14,Nc1cccc(CNCc2cccc(-c3cccc(-c4nc5cc(C(F)(F)F)ccc5[nH]4)c3)c2)c1,11.4%
15,CCOc1cccc(C2c3c(oc4ccccc4c3=O)C(=O)N2CCN(CC)CC)c1 (stereo not given),0.85%
16,N#Cc1ccc(N/C(=N\c2ccc(-c3ccccc3)cc2)NCc2cccnc2)c(O)c1,2.24%
17,COc1cc(NC(=O)c2sc(-c3ccc(Cl)cc3)cc2NC(=O)c2cccnc2)ccc1OCCN1CCCC1,7.19%
18,O=C(c1ccc(Cl)cc1)C1CCN(CCCOc2ccc3c(c2)CCNCC3)CC1,7.25%
19,Cc1cc(N2CCCC2)nc(Nc2ccc(NC(=O)c3ccc4c(c3)OCO4)cc2)n1,9.8%
20,Cc1cc(=NN=Cc2ccccc2F)c2cc(C(F)(F)F)ccc2[nH]1,-0%
21,O=C1c2ccc([N+](=O)[O-])cc2C(=O)N1c1ccc2[nH]ncc2c1,0.71%
22,O=C(Nc1cccc(CN2CCCN(Cc3ccsc3)CC2)c1)c1ccc(Cl)c(Cl)c1,8.05%
23,N#Cc1ccc(-c2cnc3ccc(NCc4ccc(S(N)(=O)=O)cc4)nn23)cc1,3.82%
24,CC(N)(Cc1ccc(O)cc1)c1nnn[nH]1 (stereo not given),-0%
25,CCN(CC)CCN(Cc1ccc(-c2ccc(C(F)(F)F)cc2)cc1)C(=O)CN1C(CCc2cccc(F)c2F)=NS(=O)(=O)c2ccccc21,5.8%
